# Data as given in PubChem BioAssay AID1346428 (National Center for Advancing Translational Sciences (NCATS), 2018).
# Several values for one entry are separate records, joined by “and”; a condition that tells them apart may be missing. Identical values can stand only once. Among all 48,000 compounds or so, about 1,200 (2.5%) were called active. About 2% were inconclusive and are not listed.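 How the source made its calls: active means activation of at least 60% and not above a set upper limit (about 1 call in 100 departs from these limits); inconclusive means activation of 40% to 60%, or above that upper limit; inactive means activation under 40%.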 Some of the results follow.
# Target: Probable G-protein coupled receptor 32 (Homo sapiens) (UniProt O75388)
# Chain of UniProt O75388 (O75388 whole entry, looked up): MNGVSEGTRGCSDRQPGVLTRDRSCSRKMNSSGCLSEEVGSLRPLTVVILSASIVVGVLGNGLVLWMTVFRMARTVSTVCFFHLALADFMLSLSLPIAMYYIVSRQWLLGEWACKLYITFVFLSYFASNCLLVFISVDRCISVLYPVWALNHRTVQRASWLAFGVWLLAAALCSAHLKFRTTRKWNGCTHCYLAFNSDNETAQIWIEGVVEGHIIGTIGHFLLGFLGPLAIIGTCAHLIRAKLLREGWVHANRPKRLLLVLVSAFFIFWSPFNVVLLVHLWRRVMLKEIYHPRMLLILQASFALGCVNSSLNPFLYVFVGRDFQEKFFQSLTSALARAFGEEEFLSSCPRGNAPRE
# Test: qHTS for Agonists of Human Resolvin D1 Receptor DRV1; further: 0% is about no effect
# Details: CHO-K1 GPR32 beta-arrestin PathHunter luminescence, 90 min; at 76.9 µM; hits give high values; zero percent set by DMSO-only wells
# Method in brief: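 GPR32 activation in stably transfected CHO-K1 cells, detected as beta-arrestin recruitment by enzyme-fragment complementation. Compound exposure: 90 min, 37 °C.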
row,SMILES,activation
1,Cc1cc(-c2ccccc2)nnc1NCCN1CCOCC1,inactive: 1.09%
2,CCOC(=O)c1ccc(NC(=O)N2CC3CCCN3c3ccccc32)cc1 (centres undefined),inactive: -17.2%
3,CCC1CCCCN1C(=O)CSc1nnc(-c2ccc(OC)c(OC)c2)o1 (centres undefined),inactive: -9.42%
4,CCC(=O)N1CCc2cc(S(=O)(=O)NCc3ccc(C)cc3)ccc21,inactive: 18.4%
5,COc1ccc(Cl)cc1Nc1ccc2cc(S(=O)(=O)N3CCCCC3)ccc2n1,inactive: -13.6%
6,COc1ccccc1NC(=O)C1=C(C)Nc2nc3ccccc3n2C1c1ccccc1Cl (centres undefined),inactive: 4.02%
7,CN(C)c1ncc(C(=O)NCc2ccc(Cl)cc2)cn1,inactive: 23%
8,CCOc1ccc(NC(=O)c2ccc(F)c(S(=O)(=O)N(Cc3ccc(C(=O)OC)cc3)Cc3ccc(OC)c(OC)c3)c2)cc1,inactive: -20.7%
9,O=C(Cn1cc(C(=O)c2ccco2)c2ccccc21)Nc1ccccc1,inactive: -7.47%
10,CCOc1ccc(N2CC(C)Cn3c2nc2c3c(=O)n(Cc3c(F)cccc3Cl)c(=O)n2C)cc1 (centres undefined),inactive: -6.85%
11,Cc1ccc(-c2nnn3c2nc(NC2CCC(C)CC2)c2ccccc23)cc1 (centres undefined),inactive: 4.68%
12,O=C(CSc1ncc(-c2ccccc2)[nH]1)Nc1cccc(Br)c1,inactive: 4.33%
13,Cc1cc(OCC(=O)N2CCC(c3nc4ccccc4s3)CC2)ccc1Cl,active: 78%
14,NC(N)=Nc1nc(CSCC/C(N)=N/S(N)(=O)=O)cs1,inactive: -11.6% and inactive: 6.07%
15,Cc1cc2n(n1)CCCN2C(=O)Nc1ccc(F)c(Cl)c1,inactive: 3.57%
16,CCOCCc1nnc(NC(=O)C(=O)c2cc(C)n(-c3ccc(Cl)cc3)c2C)s1,inactive: 25%
17,Cc1ccc(S(=O)(=O)c2cnc(SCC(=O)Nc3ccc4c(c3)OCCO4)[nH]c2=O)cc1C,inactive: 14.8%
18,COC(=O)CN1C(C(=O)c2ccccc2)=C(OC(=O)c2ccc(F)cc2)c2ccccc2S1(=O)=O,inactive: -5.48%
19,CCN(CCCNC(=O)c1cc2c(=O)n(CC)c3ccccc3c2s1)Cc1ccccc1,inactive: -13.3%
20,CC1CCCCN1C(=O)c1ccc2c(c1)N(Cc1ccc(F)cc1)C(=O)c1ccccc1S2(=O)=O (centres undefined),inactive: -9.32%
21,COc1cccc(-c2nc3c(C#N)c[nH]n3c2NC2CCCC2)c1OC,inactive: -33.9%

row,SMILES,activation
1,COc1cccc(-n2c(C)nc3cc(C(=O)O)ccc32)c1,inactive: 19.6%
2,COc1cc2nc(NC(=O)c3ccc(S(=O)(=O)N4CCc5ccccc54)cc3)sc2cc1OC,inactive: -62.4%
3,CC1CCN(c2oc(-c3cccs3)nc2S(=O)(=O)c2ccccc2)CC1,inactive: -6.38%
4,CCOc1ccc(CNC(=O)C2CCN(c3nc4ccccc4nc3C(F)(F)F)CC2)cc1OC,inactive: -1.75%
5,CCc1c(C)sc2c1CCN(Cc1ccccc1C#N)C2c1ccccc1 (centres undefined),inactive: -0.0302%
6,COc1ccc(CCNC(=O)c2cnc3sc(N4CCOCC4)nn3c2=O)cc1,inactive: 3.91%
7,CCOC(=O)c1cnc2c(ccc3ccccc32)c1Nc1cccc(Cl)c1,inactive: -5.74%
8,Cc1nn(C)c2c1c(-c1ccccc1)cc(=O)n2Cc1ccc(F)cc1,inactive: -4.36%
9,COc1ccc(-n2nc3ccc(NC(=O)c4cccc(OCCC(C)C)c4)cc3n2)cc1,inactive: -5.99%
10,COc1ccc(-n2cc(-c3ccc4c(c3)OCO4)n(CC(=O)Nc3cc(Cl)ccc3C)c2=O)cc1,inactive: -3.96%
11,COc1ccccc1CNC(=O)C(NS(=O)(=O)c1ccc2c(c1)CCN2C(C)=O)C(C)C (centres undefined),inactive: -13.8%
12,CCOC(=O)c1cnc2ccc(OC)cc2c1Nc1ccc(OCc2ccccc2Cl)cc1,inactive: -3.13%
13,Cc1ccc(NC(=O)CCC(=O)N2Cc3ccccc3Oc3ncccc32)cc1Cl,inactive: -16.9%
14,COc1ccc(CNC(=O)c2cnc(N3CCCC3)nc2C)c(OC)c1,inactive: -9.32%
15,COc1ccc(C)cc1NC(=O)c1nnn(Cc2cccc(Br)c2)c1N,inactive: 42.1%
16,COc1ccc(C2=NS(=O)(=O)N(C)C(C(=O)NC(C)c3ccccc3)=C2)cc1 (centres undefined),inactive: -21.4%
17,COc1ccc(-c2nc3sc(CCNC(=O)Cc4ccccc4)c(C)n3n2)cc1,inactive: -14.6%
18,CCOC(=O)c1cc(-c2ccccc2)n(CCC(=O)NCCc2ccccc2)c1C,inactive: -25.9%
19,CCN(C(=O)CSc1nc2ccccc2n1CC(=O)N(C)C1CCCCC1)c1ccccc1,inactive: 0.241%
20,CCCS(=O)(=O)N1CCC(n2c(C)nc3cccnc32)CC1,inactive: 19.6%
21,CCN(CC)S(=O)(=O)c1ccc2c(c1)N(CC(=O)NCCCN1CCN(c3ccc(OC)cc3)CC1)C(=O)CO2,inactive: -11.9%

row,SMILES,activation
1,Cc1ccc2oc(C(=O)Nc3ccc(S(=O)(=O)N4CCCCC4C)cc3)cc(=O)c2c1 (centres undefined),inactive: -8.31%
2,CCc1ccc(C(=O)c2cn(CC(=O)Nc3cc(OC)ccc3OC)c3ccc(Cl)cc3c2=O)cc1,inactive: 40.4%
3,COc1ccccc1C(=O)OCc1cc(=O)n2nc(C3CCCCC3)sc2n1,inactive: 0.859%
4,Cc1cccc(NC(=O)CN2C(=O)c3ccccc3Sc3ncccc32)c1C,inactive: -6.59%
5,CCn1c(NCc2ccc(OC)c(OC)c2)nc2ccccc21,inactive: -0.545%
6,OC[C@H]1O[C@@H](n2cnc3c(Nc4ccccc4)ncnc32)[C@H](O)[C@@H]1O,inactive: 2.49%
7,Cc1noc2ncnc(N3CCCC(C(=O)NC(C)C)C3)c12 (centres undefined),inactive: 16.6%
8,Cc1ccc(Cl)cc1N1CCN(CCCNc2ncnc3onc(-c4ccc(Cl)cc4)c23)CC1,inactive: -1.17%
9,COc1ccc(CCNC(=O)CSC2=Nc3ccccc3C3=NC(CCC(=O)NCc4ccccc4)C(=O)N23)cc1OC (centres undefined),inactive: -2.12%
10,CCOc1ccccc1CNC(=O)c1ccc2c(c1)sc1nc(-c3ccccc3)cn12,inactive: -9.3%
11,Cc1cccc(CCNC(=O)C2CCN(c3ncnc4c3nc3n4CCCCC3)CC2)c1,inactive: -0.0195%
12,C/C(=C\c1ccc(C(=O)O)cc1)c1ccc2c(c1)C(C)(C)CCC2(C)C,inactive: -10.8%
13,CCOC(=O)c1cc(-c2ccccc2)n(CCC(=O)Nc2cc(OCC)ccc2OCC)c1C,inactive: -20.7%
14,CCCCCn1c(CCCNC(=O)c2cccc(C)c2)nc2ccccc21,inactive: -6.6%
15,Nc1ccc(CCNc2ncnc3c2ncn3C2OC(CO)C(O)C2O)cc1 (centres undefined),inactive: -6.28%
16,COc1ccc(OC)c(CNC(=O)c2cc3ccc4cccnc4c3[nH]2)c1,inactive: -10.3%
17,Cc1nn2c(=O)cc(COC(=O)c3ccc(NC(=O)COc4ccc(Cl)cc4)cc3)nc2s1,inactive: 19.7%
18,CCn1nnc2cc(C(=O)Nc3ccc(C)cc3Br)ccc21,inactive: -0.117%
19,CC1CCN(S(=O)(=O)c2ccc3nc(NCc4ccc(F)cc4)ccc3c2)CC1,inactive: 1.71%
20,COc1ccc(C)cc1NC(=O)C(=O)NCCc1csc2nc(-c3ccccc3F)nn12,inactive: -10.9%
21,O=c1c2oc3ccccc3c2n(Cc2ccccc2)c(=O)n1Cc1ccco1,inactive: -6.75%

row,SMILES,activation
1,O=C(Cn1nnc2sc(-c3ccccc3)cc2c1=O)Nc1cccc(C(F)(F)F)c1,inactive: -31.1%
2,CC(C)(C)OC(=O)N1CCC(c2nnc(SCc3ccccc3F)o2)CC1,inactive: 7.61%
3,CCOc1ccc(CCNc2ncnc3onc(-c4ccc(Cl)cc4)c23)cc1,inactive: -3.07%
4,Cc1cccc(-c2nc3scc(CCNS(=O)(=O)c4ccc(F)cc4C)n3n2)c1,inactive: 2.94%
5,Cc1ccc(NC(=O)c2cc(S(=O)(=O)NCCC3=CCCCC3)ccc2F)cc1C,inactive: -22.8%
6,CCc1ccccc1NC(=O)CN(c1ccc(OC)cc1)S(=O)(=O)c1c(C)n[nH]c1C,inactive: -1.17%
7,Cc1c(NC(=O)c2cc(-c3ccc(Br)cc3)on2)c(=O)n(-c2ccccc2)n1C,inactive: 1.83%
8,Cc1oc(-c2ccccc2)nc1CNC(=O)NC1CCCCC1,inactive: -14.7%
9,COc1ccc(Nc2sc(C(=O)c3ccccc3)c(N)c2C(=O)Nc2cc(C)ccc2C)c(OC)c1,inactive: 3.1%
10,Cc1ccn2c(c1)nc(=O)c1cc(S(=O)(=O)N3CCCCC3)c(Cl)cc12,inactive: -7.95%
11,CCc1ccc(NC(=O)c2sc3nc(C)c(C(=O)Nc4ccc(C)cc4C)c(-c4ccco4)c3c2N)cc1,inactive: -3.78%
12,CCOC(=O)c1c(NC(=O)/C=C/c2ccc(OCC)c(OC)c2)sc2c1CCC2,inactive: -5.26%
13,COc1cccc(CNC(=O)CCCN2C(=O)CSc3c2c(C)nn3-c2ccccc2)c1OC,inactive: -15.9%
14,CCN1C(=O)c2ccccc2S(=O)c2ccc(C(=O)N3CCN(c4ccccc4)CC3)cc21 (centres undefined),inactive: -16%
15,Cc1ccc(S(=O)(=O)c2nnn3c2nc(N2CCC(C)CC2)c2cc(Cl)ccc23)cc1C,inactive: -3.04%
16,COc1ccc(-c2nc3nc(C)cc(Nc4cccc(C(F)(F)F)c4)n3n2)cc1,inactive: -4.81%
17,Cc1ccc(CNC(=O)Cn2cc(S(=O)(=O)Cc3cccc(Cl)c3)c3ccccc32)cc1,inactive: 40.2%
18,COc1ccc(NC(=O)COc2ccc(S(=O)(=O)NC3CCCCC3)cc2)c(OC)c1,inactive: -1.18%
19,O=C(CCCc1nc(-c2ccccc2)no1)Nc1cc(C(F)(F)F)cc(C(F)(F)F)c1,inactive: 21.7%
20,O=C(Nc1nnc(S(=O)(=O)N2CCCCC2)s1)c1ccc(F)cc1,inactive: 13.3%
21,Cc1cc(C)c(Cn2c3ccccc3c3cnn(CC(=O)NCc4ccc(Cl)cc4)c(=O)c32)c(C)c1,inactive: -14.2%
